This is an account of results in the supplement of paper PMC4604168 (melanoma cell lines).

SMILES strings stand for the structures. The list shows a part of the results. Many values rest on one well or one pass, so single values are uncertain.
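Further: cell number obtained by counting DAPI-stained nuclei in high-throughput microscope images with image analysis software, screen run in 1,536-well plates.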

In this experiment the test system is LB2518-MEL. Briefly: cell count relative to DMSO control; melanoma cells; higher = more viable cells. Conditions: library dose: low library concentration; 72 h.
Consider `Nc1ncn([C@H]2C[C@H](O)[C@@H](CO)O2)c(=O)n1` [decitabine] + CC(C)CCN1c2nc(Nc3cc(F)c(O)c(F)c3)ncc2N(C)C(=O)C1C [BID1870] (first compound 0.1 µM, partner dose 0.2 µM), for which the cell count is 95.2%.

As to `Nc1ccn([C@@H]2O[C@H](CO)[C@@H](O)C2(F)F)c(=O)n1` [gemcitabine] + CC(C)CCN1c2nc(Nc3cc(F)c(O)c(F)c3)ncc2N(C)C(=O)C1C [BID1870] (first compound 0.0004 µM, partner dose 0.2 µM), the cell count came to 80.9%.

For the molecule `Nc1ncn([C@H]2C[C@H](O)[C@@H](CO)O2)c(=O)n1` [decitabine] + CC1(C)NC(=O)N(c2ccc([N+](=O)[O-])c(C(F)(F)F)c2)C1=O [nilutamide] (first compound 0.1 µM, partner dose 1 µM), the cell count was 90.8%.

With `CC(=O)O[C@@]12CO[C@@H]1C[C@H](O)[C@@]1(C)C(=O)[C@H](O)C3=C(C)[C@@H](OC(=O)[C@H](O)[C@@H](NC(=O)OC(C)(C)C)c4ccccc4)C[C@@](O)([C@@H](OC(=O)c4ccccc4)[C@H]21)C3(C)C` [Docetaxel] + CCc1ccc(CCOc2ccc(CC3SC(=O)NC3=O)cc2)nc1 [pioglitazone] (first compound 0.0001 µM, partner dose 2 µM), the cell count stood at 70.2%.

On to `Nc1ncn([C@H]2C[C@H](O)[C@@H](CO)O2)c(=O)n1` [decitabine] + Cc1cc(N2CCOCC2)cc2[nH]c(-c3c(NC[C@@H](O)c4cccc(Cl)c4)cc[nH]c3=O)nc12 [BMS536924] (first compound 0.1 µM, partner dose 0.2 µM), for which the cell count was 80.7%.

`Nc1ncn([C@H]2C[C@H](O)[C@@H](CO)O2)c(=O)n1` [decitabine] + O=S(=O)(c1ccccc1)N(CC(F)(F)F)c1ccc(C(O)(C(F)(F)F)C(F)(F)F)cc1 [T0901317] (first compound 0.1 µM, partner dose 1.4 µM) showed a cell count of 96.8%.

`Nc1ncn([C@H]2C[C@H](O)[C@@H](CO)O2)c(=O)n1` [decitabine] + COc1cc(N2CCC(N3CCN(C)CC3)CC2)ccc1Nc1ncc(Cl)c(Nc2ccccc2S(=O)(=O)C(C)C)n1 [NVP-TAE684] (first compound 0.1 µM, partner dose 0.08 µM): the cell count is 54.8%.

For the molecule `CC(=O)c1c(C)c2cnc(Nc3ccc(N4CCNCC4)cn3)nc2n(C2CCCC2)c1=O` [palbociclib] + Oc1nc(-c2ccc(C(F)(F)F)cc2)nc2c1CSCC2 [XAV939] (first compound 0.04 µM, partner dose 2 µM), the cell count was 70.9%.

As for `Nc1ccn([C@@H]2O[C@H](CO)[C@@H](O)C2(F)F)c(=O)n1` [gemcitabine] + O=c1cc(-c2cccc3c2Sc2ccccc2S3)oc(N2CCOCC2)c1 [KU55933] (first compound 0.0004 µM, partner dose 1 µM), the cell count amounted to 132%.

As to `Nc1ncn([C@H]2C[C@H](O)[C@@H](CO)O2)c(=O)n1` [decitabine] + N#Cc1c(O)c2c(-c3ccc(-c4ccccc4O)cc3)csc2[nH]c1=O [A769662] (first compound 0.1 µM, partner dose 2 µM), the cell count stood at 80.5%.

For `Nc1nc(F)nc2c1ncn2[C@@H]1O[C@H](CO)[C@@H](O)[C@@H]1O` [fludarabine] + CN(C)S(=O)(=O)c1ccc2c(c1)/C(=C/c1cc3c([nH]1)CCCC3)C(=O)N2 [SU6656] (first compound 0.2 µM, partner dose 0.4 µM), the cell count is 82.2%.

`Nc1ncn([C@H]2C[C@H](O)[C@@H](CO)O2)c(=O)n1` [decitabine] + CCc1ccc(CCOc2ccc(CC3SC(=O)NC3=O)cc2)nc1 [pioglitazone] (first compound 0.1 µM, partner dose 2 µM): the cell count turned out to be 83.1%.

On to `CC(=O)c1c(C)c2cnc(Nc3ccc(N4CCNCC4)cn3)nc2n(C2CCCC2)c1=O` [palbociclib] + CN(NC(=O)CC(=O)NN(C)C(=S)c1ccccc1)C(=S)c1ccccc1 [STA4783] (first compound 0.04 µM, partner dose 0.006 µM), for which the cell count was found to be 58.6%.

As for `CC(=O)O[C@@]12CO[C@@H]1C[C@H](O)[C@@]1(C)C(=O)[C@H](O)C3=C(C)[C@@H](OC(=O)[C@H](O)[C@@H](NC(=O)OC(C)(C)C)c4ccccc4)C[C@@](O)([C@@H](OC(=O)c4ccccc4)[C@H]21)C3(C)C` [Docetaxel] + CS(=O)(=O)CCNCc1ccc(-c2ccc3ncnc(Nc4ccc(OCc5cccc(F)c5)c(Cl)c4)c3c2)o1 [lapatinib] (first compound 0.0001 µM, partner dose 0.8 µM), the cell count was 71%.

For the molecule `CC(=O)O[C@@]12CO[C@@H]1C[C@H](O)[C@@]1(C)C(=O)[C@H](O)C3=C(C)[C@@H](OC(=O)[C@H](O)[C@@H](NC(=O)OC(C)(C)C)c4ccccc4)C[C@@](O)([C@@H](OC(=O)c4ccccc4)[C@H]21)C3(C)C` [Docetaxel] + c1cc(-c2cnn3cc(-c4ccc(OCCN5CCCCC5)cc4)cnc23)ccn1 [Dorsomorphin] (first compound 0.0001 µM, partner dose 0.4 µM), the cell count was 61.6%.

`CO[C@H]1C[C@@H]2CC[C@@H](C)[C@@](O)(O2)C(=O)C(=O)N2CCCC[C@H]2C(=O)O[C@H]([C@H](C)C[C@@H]2CC[C@@H](OCCO)[C@H](OC)C2)CC(=O)[C@H](C)/C=C(\C)[C@@H](O)[C@@H](OC)C(=O)[C@H](C)C[C@H](C)/C=C/C=C/C=C/1C` [everolimus] + COc1cc2ncnc(Nc3ccc(Oc4ccccc4)cc3)c2cc1OC [SrcI1] (first compound 0.02 µM, partner dose 2 µM) yielded a cell count of 64.6%.

On to `Nc1ncn([C@H]2C[C@H](O)[C@@H](CO)O2)c(=O)n1` [decitabine] + COC(=O)c1sccc1S(=O)(=O)Nc1ccc(Nc2ccccc2)cc1OC [GSK0660] (first compound 0.1 µM, partner dose 1 µM), for which the cell count amounted to 87.9%.

`Nc1nc(F)nc2c1ncn2[C@@H]1O[C@H](CO)[C@@H](O)[C@@H]1O` [fludarabine] + CCN(CC)CCCCNc1ncc2cc(-c3cc(OC)cc(OC)c3)c(NC(=O)NC(C)(C)C)nc2n1 [PD173074] (first compound 0.2 µM, partner dose 0.1 µM): the cell count is 91.1%.

`Nc1ccn([C@@H]2O[C@H](CO)[C@@H](O)C2(F)F)c(=O)n1` [gemcitabine] + Oc1nc(-c2ccc(C(F)(F)F)cc2)nc2c1CSCC2 [XAV939] (first compound 0.0004 µM, partner dose 2 µM) yielded a cell count of 94.3%.

`Nc1ccn([C@@H]2O[C@H](CO)[C@@H](O)C2(F)F)c(=O)n1` [gemcitabine] + COc1ccc2c(c1)CCC1C2CCC2(C)C(NCCCCCCN3C(=O)C=CC3=O)CCC12 [U73122] (first compound 0.0004 µM, partner dose 0.4 µM): the cell count worked out at 102%.

On to `CC(=O)c1c(C)c2cnc(Nc3ccc(N4CCNCC4)cn3)nc2n(C2CCCC2)c1=O` [palbociclib] + O=c1cc(-c2cccc3c2Sc2ccccc2S3)oc(N2CCOCC2)c1 [KU55933] (first compound 0.04 µM, partner dose 1 µM), for which the cell count came out at 104%.

`CC(=O)c1c(C)c2cnc(Nc3ccc(N4CCNCC4)cn3)nc2n(C2CCCC2)c1=O` [palbociclib] + Cc1cc([N+](=O)[O-])ccc1NS(=O)(=O)c1cc(Cl)ccc1Cl [FH535] (first compound 0.04 µM, partner dose 1 µM) had a cell count of 73.4%.

`Nc1ncn([C@H]2C[C@H](O)[C@@H](CO)O2)c(=O)n1` [decitabine] + CCCCCCCCCCCC1=C(O)C(=O)C=C(O)C1=O [Embelin] (first compound 0.1 µM, partner dose 1.2 µM) returned a cell count of 93.2%.

Turning to `Nc1ccn([C@@H]2O[C@H](CO)[C@@H](O)C2(F)F)c(=O)n1` [gemcitabine] + CCCCCCCCCCCC1=C(O)C(=O)C=C(O)C1=O [Embelin] (first compound 0.0004 µM, partner dose 1.2 µM), the cell count was found to be 102%.

For the molecule `Nc1nc(F)nc2c1ncn2[C@@H]1O[C@H](CO)[C@@H](O)[C@@H]1O` [fludarabine] + CC(C)CCN1c2nc(Nc3cc(F)c(O)c(F)c3)ncc2N(C)C(=O)C1C [BID1870] (first compound 0.2 µM, partner dose 0.2 µM), the cell count came out at 98.6%.

Take `CO[C@H]1C[C@@H]2CC[C@@H](C)[C@@](O)(O2)C(=O)C(=O)N2CCCC[C@H]2C(=O)O[C@H]([C@H](C)C[C@@H]2CC[C@@H](OCCO)[C@H](OC)C2)CC(=O)[C@H](C)/C=C(\C)[C@@H](O)[C@@H](OC)C(=O)[C@H](C)C[C@H](C)/C=C/C=C/C=C/1C` [everolimus] + COc1ccc(-c2ccc3c(N4CCOCC4)nc(N4C[C@@H](C)O[C@@H](C)C4)nc3n2)cc1CO [KU0063794] (first compound 0.02 µM, partner dose 0.02 µM): the cell count came out at 82.2%.

Regarding `CC(=O)O[C@@]12CO[C@@H]1C[C@H](O)[C@@]1(C)C(=O)[C@H](O)C3=C(C)[C@@H](OC(=O)[C@H](O)[C@@H](NC(=O)OC(C)(C)C)c4ccccc4)C[C@@](O)([C@@H](OC(=O)c4ccccc4)[C@H]21)C3(C)C` [Docetaxel] + CCN(CC)CCCCNc1ncc2cc(-c3cc(OC)cc(OC)c3)c(NC(=O)NC(C)(C)C)nc2n1 [PD173074] (first compound 0.0001 µM, partner dose 0.1 µM), the cell count stood at 78%.
